From PubChem BioAssay AID504332 (National Center for Advancing Translational Sciences (NCATS), 2011)
Hit rate of the full screen: of about 350,000 compounds, about 31,000 (8.9%) were called active. This list was built around the results that the source calls inconclusive (neither active nor inactive); the mix of calls is not that of the screen. Calls come from the whole dose curve; as a rule, active = well fitted inhibition curve with a large enough effect; inconclusive = small, poorly fitted or top-dose-only effect; inactive = no such curve, though single readings can be large or run the other way. Potencies of inconclusive entries are doubtful fits and often do not repeat.

Molecular target: Histone-lysine N-methyltransferase EHMT2 (Homo sapiens) (UniProt Q96KQ7)
Sequence of UniProt Q96KQ7 (Q96KQ7 whole entry, looked up): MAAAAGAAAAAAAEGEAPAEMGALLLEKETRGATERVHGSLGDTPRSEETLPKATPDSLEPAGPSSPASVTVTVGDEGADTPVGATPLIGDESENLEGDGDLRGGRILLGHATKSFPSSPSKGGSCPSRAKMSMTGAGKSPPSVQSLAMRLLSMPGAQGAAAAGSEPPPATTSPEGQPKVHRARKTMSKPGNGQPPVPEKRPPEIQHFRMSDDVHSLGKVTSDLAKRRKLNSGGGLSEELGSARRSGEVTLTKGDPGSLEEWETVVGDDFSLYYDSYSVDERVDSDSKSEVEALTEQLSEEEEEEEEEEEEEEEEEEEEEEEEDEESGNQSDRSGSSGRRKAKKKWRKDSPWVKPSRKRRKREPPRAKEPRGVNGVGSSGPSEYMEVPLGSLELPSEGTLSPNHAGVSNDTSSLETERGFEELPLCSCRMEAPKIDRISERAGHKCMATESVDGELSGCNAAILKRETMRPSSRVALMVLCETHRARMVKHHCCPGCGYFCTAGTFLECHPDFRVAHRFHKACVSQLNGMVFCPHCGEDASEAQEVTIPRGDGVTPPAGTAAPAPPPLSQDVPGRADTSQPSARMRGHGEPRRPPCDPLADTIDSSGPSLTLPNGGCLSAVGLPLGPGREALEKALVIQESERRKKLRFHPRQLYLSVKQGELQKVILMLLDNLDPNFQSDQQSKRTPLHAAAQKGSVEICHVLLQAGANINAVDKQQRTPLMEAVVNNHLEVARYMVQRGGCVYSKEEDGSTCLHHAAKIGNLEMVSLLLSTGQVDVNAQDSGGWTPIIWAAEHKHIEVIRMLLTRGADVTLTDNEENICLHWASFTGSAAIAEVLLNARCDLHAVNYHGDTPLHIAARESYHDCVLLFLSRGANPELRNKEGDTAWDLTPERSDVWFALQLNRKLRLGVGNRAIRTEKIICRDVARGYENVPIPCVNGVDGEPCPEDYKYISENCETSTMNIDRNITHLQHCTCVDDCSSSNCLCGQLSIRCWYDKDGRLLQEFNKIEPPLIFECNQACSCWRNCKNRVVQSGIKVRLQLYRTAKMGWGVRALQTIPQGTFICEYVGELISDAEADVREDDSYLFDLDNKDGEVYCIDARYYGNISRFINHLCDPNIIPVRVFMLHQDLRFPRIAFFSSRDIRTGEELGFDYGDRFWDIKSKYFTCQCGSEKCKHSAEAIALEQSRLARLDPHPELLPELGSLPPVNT
Assay: qHTS Assay for Inhibitors of Histone Lysine Methyltransferase G9a; note: nearly all actives have a fitted effect of over 75% in size
Settings: G9a H3K9 monomethylation, AlphaScreen, 2 h; activity, negative = inhibition: at 59 µM (top of the series) unless noted
Summary of the method: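 Compounds were preincubated with 20 nM G9a for 15 min, after which biotinylated H3K9 peptide (500 nM) and SAM (20 uM) started a 2 h room-temperature reaction. Monomethylated product was quantified by antibody-based AlphaScreen chemiluminescence.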
% is set by controls: 0 for no effect and ±100 for the full control effect; potency is the fitted concentration of half-maximal effect; tags give direction and shape of the fitted curve.

Row | Structure (SMILES) | Potency | activity, negative = inhibition
1 | Cc1ccc(C(=O)Nc2ccc(O)c(C(=O)O)c2)o1 | inconclusive: 20 µM [inhibitor, partial curve, poor fit] | 
2 | O=C(NCc1ccco1)c1cc([N+](=O)[O-])ccc1N1CCCCC1 | inconclusive: 35.5 µM [inhibitor, partial curve, poor fit] | 
3 | Cc1c(Cl)cn2c(=O)cc(CN3CCN(c4ccc(F)cc4)CC3)nc2c1Cl | active: 50.1 µM | 
4 | C=CCn1c(P(=O)(O)c2ccccc2)nc2ccccc21 | inconclusive: 3.16 µM [inhibitor, full curve, poor fit] | 
5 | CNC(=S)N/N=C(\C)c1cccc([N+](=O)[O-])c1 | inconclusive: 39.8 µM [inhibitor, single point] | 
6 | CC1CC(c2ccccc2)NS(=O)(=O)O1 (centres undefined) | inactive | 
7 | O=c1c(OC2OC(CO)C(O)C(O)C2OC2OC(CO)C(O)C(O)C2OC2OC(CO)C(O)C(O)C2O)c(-c2ccc(O)c(O)c2)oc2cc(O)cc(O)c12 (centres undefined) | inconclusive: 1.41 µM [inhibitor, single point] | 
8 | COc1ccc(S(=O)(=O)N2CCC(n3c(C(F)(F)F)nc4cccnc43)CC2)cc1OC | inactive | 
9 | O=C(COc1ccccc1O)NNc1ccccc1 | active: 15.8 µM | 
10 | COc1ccc(OC)c(NC(=O)Cc2coc3ccc4ccccc4c23)c1 |  | inconclusive: -104% [inhibitor]
11 | Cc1ccc(Cn2nnc(C(=O)Nc3ccc(F)c(F)c3)c2N)cc1 | inconclusive: 15.8 µM [inhibitor, partial curve, poor fit] | 
12 | Cc1nc2ncccn2c1-c1csc(Nc2cccc(C(=O)O)c2)n1 | inconclusive: 89.1 µM [inhibitor, single point] | 
13 | Cc1nc(C)c(C(=O)C2=C(O)C(=O)N(CCN3CCOCC3)C2c2cccnc2)s1 (centres undefined) |  | inconclusive: -63.2% [inhibitor]
14 | Cc1cccc(Nc2nnc(SCC(=O)NC3CCCc4ccccc43)s2)c1 (centres undefined) | inconclusive: 20 µM [inhibitor, single point] | 
15 | CCOC(=O)N1CCc2c(sc3c2c(=O)n(CCc2ccccc2)c(=O)n3Cc2ccc(F)cc2)C1 | inconclusive: 3.55 µM [inhibitor, partial curve, poor fit] | 
16 | O=C(CSc1nc(-c2ccccc2)no1)N1CCCCC1 | inactive | 
17 | O=C(O)CN(c1cccc(C(F)(F)F)c1)S(=O)(=O)c1ccccc1 | inconclusive: 39.8 µM [inhibitor, partial curve, poor fit] | 
18 | O=C1Cc2ccccc2Sc2c(OCCN3CCCCC3)cccc21 | inconclusive: 0.355 µM [inhibitor, full curve, poor fit] | 
19 | Oc1c(Cl)cc(Cl)cc1CNc1nccs1 | active: 79.4 µM | 
20 | O=C(CSc1nnc(-c2cccnc2)s1)Nc1cccc(C(=O)O)c1 | inconclusive: 31.6 µM [inhibitor, single point] | 
21 | Cc1cc(N2CCN(S(=O)(=O)c3ccc(Br)cc3)CC2)n2ncnc2n1 | inconclusive: 89.1 µM [inhibitor, partial curve, poor fit] | 
22 | Cc1ccc(C)c(NC(=S)NC(NC(=O)OCc2ccccc2)C(Cl)(Cl)Cl)c1 (centres undefined) | inconclusive: 31.6 µM [inhibitor, single point] | 

Row | Structure (SMILES) | Potency | activity, negative = inhibition
23 | O=C(O)c1ccc(Cl)c(S(=O)(=O)N(Cc2ccccc2)c2ccc(Cl)cc2)c1 | active: 50.1 µM | 
24 | O=C(CN(Cc1cccs1)C(=O)CNS(=O)(=O)c1ccc(Cl)cc1)NCc1ccco1 | inconclusive: 89.1 µM [inhibitor, single point] | 
25 | Cc1ccccc1Cn1cc(NC(=O)CCCn2nc([N+](=O)[O-])cc2C)cn1 | inactive | 
26 | CCOC(=O)C1=C(C)NC(SCC(=O)O)=C(C#N)C1c1ccco1 (centres undefined) | inconclusive: 20 µM [inhibitor, single point] | 
27 | Cn1c(SCC(=O)NNC(=O)c2ccc(Cl)cc2)nnc1-c1cccnc1 | inconclusive: 50.1 µM [inhibitor, partial curve, poor fit] | 
28 | COc1ccc(C(C)=O)cc1COC(=O)c1ccc(S(=O)(=O)N(C)C)cc1 | inactive | 
29 | O=C(Nc1cc(N2CCCCC2)ncn1)c1ccccc1 |  | inconclusive: -72.8% [inhibitor]
30 | CCOc1ccccc1-n1cc2c(c1-c1ccc(OC)cc1)c(=O)n(C)c(=O)n2C | inconclusive: 10 µM [inhibitor, partial curve] | 
31 | Cc1ccnc(NC(=O)C(C)N2C(=O)c3ccccc3S2(=O)=O)c1 (centres undefined) | inconclusive: 89.1 µM [inhibitor, single point] | 
32 | CCOC(=O)c1cccc(NC(=O)C(C)n2c(C)c3cnn(-c4ccccc4)c(=O)c3c2C)c1 (centres undefined) | inactive | 
33 | Clc1nssc1=Nc1ccc(Br)cc1 | active: 3.16 µM | 
34 | CNC(=O)N(O)C1N(C)C(=O)N(Cc2ccccc2)C1(C)C (centres undefined) | inconclusive: 0.282 µM [inhibitor, full curve, poor fit] | 
35 | CC(=O)c1sc(NC(=O)COc2ccc(Cl)cc2C)nc1C | inactive | 
36 | CCCOC(=O)CSc1nnc2ccc3ccccc3n12 | inactive | 
37 | COc1cc2cc(CN(Cc3nnnn3Cc3ccccc3)CC3CCCO3)c(=O)[nH]c2cc1OC (centres undefined) | inactive | 
38 | Cc1ccc(NC(=O)CCl)cc1S(=O)(=O)N1CCCCCC1 | inconclusive: 50.1 µM [inhibitor, partial curve, poor fit] | 
39 | COCCNC(=O)CSc1nnc(NC(=O)C2CC(=O)N(c3ccccc3OC)C2)s1 (centres undefined) |  | inactive: -3.51% [at 12.7 µM]
40 | COC(=O)Cc1csc(NC(=O)CSc2nnc3ccccn23)n1 | inactive | 
41 | CCOC(=O)N/N=C/c1cc(C)n(-c2ccccc2)c1C | inconclusive: 22.4 µM [inhibitor, partial curve, poor fit] | 
42 | Cc1nn(CCC#N)c(NC(=O)c2ccc(Cl)cc2Cl)c1P(=O)(Nc1ccc([N+](=O)[O-])cc1)N1CCOCC1 (centres undefined) | inconclusive: 28.2 µM [inhibitor, partial curve, poor fit] | 
43 | COCCSc1nnc(NC(=O)Cc2ccc(OC)c(OC)c2)s1 | inconclusive: 89.1 µM [inhibitor, partial curve, poor fit] | 
44 | COc1ccc2cc(-c3csc(-c4cccnc4)n3)ccc2c1 | inactive | 
